# Experimental data taken from PubChem BioAssay AID1745845 (National Center for Advancing Translational Sciences (NCATS), 2022).
# Hit rate of the full screen: of about 360,000 compounds, about 2,600 (0.72%) were called active. The shares of active, inactive and inconclusive entries below differ from those in the screen. Calls follow the shape of the dose curve; as a rule, active = well fitted inhibition curve with a large enough effect; inconclusive = small, poorly fitted or top-dose-only effect; inactive = no such curve, though single readings can be large or run the other way. A potency beside an inconclusive call is a rough fit, not a confirmed value.
# Assay: Primary qHTS for Inhibitors of ATXN expression; also: nearly all actives have a fitted effect of over 55% in size
# Conditions: HEK-293 ATXN2-luciferase reporter, luminescence, 24 h; activity change, negative = inhibition: at 57 µM (top of the series)
# Method in brief: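 ATXN2-luciferase reporter cells (luciferase flanked by upstream and downstream ATXN2 gene portions) were treated 24 h at 37 °C with compounds at up to 57 uM. SteadyGlo luminescence gave expression; GF-AFC fluorescence gave viability.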
# % is scaled to controls: 0 for no effect and ±100 for the full control effect; potency is read from the fitted curve at half-maximal effect; tags tell the direction and shape of the fitted curve.
SMILES,Potency,"activity change, negative = inhibition"
O=C1OC[C@H](Cc2ccc3c(c2)OCO3)/C1=C\c1ccc2c(c1)OCO2,"inconclusive: 16.8 µM [inhibitor, partial curve, poor fit]",–
C[C@H](CO)N1C[C@H](C)[C@H](CN(C)Cc2ccncc2)Oc2ccc(NC(=O)Nc3ccc(C(F)(F)F)cc3)cc2CC1=O,"inconclusive: 39.8 µM [inhibitor, single point]",–
COc1ccc2c(c1)CCCN2C(N)=Nc1ccc(Cl)cc1,"inconclusive: 12.6 µM [inhibitor, partial curve, poor fit]",–
Cc1ccc2nc(NC(=O)CSc3nc4c(c(=O)n3-c3ccccc3)SCC4)sc2c1,"inconclusive: 19.3 µM [inhibitor, partial curve]",–
O=C1NC[C@H](CCCCN2CCN(Cc3ccccc3)C(=O)C2=O)N(CCc2ccc(O)cc2)C1=O,–,inactive: -5.16%
FC(F)(F)c1ccc(N/N=C/c2cccnc2)nc1,–,inactive: 4.67%
CSc1ccccc1C(=O)N1CCN(c2cccc(Cl)c2)CC1,–,inactive: -27.4%
O=Cc1ccc(O)c2ncccc12,active: 3.55 µM,–
COc1ccc2oc(C(=O)NCCc3ccccc3)c(C)c2c1,active: 4.47 µM,–
Cc1ccc(NC(=O)CSc2nc3ccccc3c3nc4ccccc4n23)cc1,"inconclusive: 28.2 µM [inhibitor, partial curve, poor fit]",–
CCCn1ccc2c(OCC(=O)Nc3cc(C)ccc3C)cccc2c1=O,"inconclusive: 31.6 µM [inhibitor, single point]",–
C/C(Cl)=C\Cn1c(O)c(N=NC(N)=S)c2cc(Br)ccc21,"inconclusive: 9.47 µM [inhibitor, partial curve, poor fit]",–
CCSc1nsc(NC(=O)Nc2cccc(F)c2)n1,"inconclusive: 39.8 µM [inhibitor, single point]",–
CC(=O)c1sc(NC(=O)COc2ccc([N+](=O)[O-])cc2)nc1C,–,inactive: 19.7%
O=C(CC1(O)C(=O)N(CCc2ccccc2)c2ccc(Br)cc21)c1ccc(F)cc1 (stereo not given),"inconclusive: 39.8 µM [inhibitor, single point]",–
O=c1[nH]c(C2CCN(S(=O)(=O)c3ccc(C(F)(F)F)cc3)CC2)nc2c1nnn2Cc1ccccc1,"inconclusive: 5.32 µM [inhibitor, partial curve, poor fit]",–
Cc1ccc(CN2CCN(Cc3ccccc3C(F)(F)F)CC2)cc1,"inconclusive: 39.8 µM [inhibitor, single point]",–
O=C(c1c(F)cccc1F)N1CCCC(c2nc(-c3ccc(Cl)cc3)no2)C1 (stereo not given),"inconclusive: 37.7 µM [inhibitor, single point]",–
C=CC[C@]12CCc3sccc3C1N(c1ccc(C(=O)OCC)cc1)C2=O (stereo not given in full),"inconclusive: 28.2 µM [inhibitor, partial curve, poor fit]",–
CN(C)c1ccc(/C=N/NC(=O)c2ccccn2)cc1,"inconclusive: 37.7 µM [inhibitor, single point]",–

SMILES,Potency,"activity change, negative = inhibition"
CCOc1ccc(C)cc1-n1nc2ccccc2n1,"inconclusive: 39.8 µM [inhibitor, single point]",–
COC(=O)c1ccc(C(=O)NC2CCCc3c2cnn3-c2ccc(C)c(C)c2)cc1 (stereo not given),"inconclusive: 2.51 µM [inhibitor, partial curve, poor fit]",–
Cn1c(COc2ccccc2)nnc1SCC(=O)NNC(=O)C1CCCCC1,"inconclusive: 37.7 µM [inhibitor, single point]",–
N/C(=N\OC(=O)c1ccc2ccccc2c1)c1ccccn1,active: 11.2 µM,–
O=C(NCc1ccco1)/C(=C/C=C\c1ccccc1)NC(=O)c1ccc(Br)o1,"inconclusive: 39.8 µM [inhibitor, single point]",–
Cc1cc(C)c2c(N)c3cccc(C)c3nc2n1,active: 13.4 µM,–
O=[N+]([O-])c1ccc2nc(-[n+]3c(-c4ccccc4)cc(-c4ccccc4)cc3-c3ccccc3)[nH]c2c1,"inconclusive: 31.6 µM [inhibitor, partial curve, poor fit]",–
Cc1nc2cc(C(F)(F)F)ccc2n1CCNc1nc(-c2cc(Cl)c(N)c(Cl)c2)cs1,"inconclusive: 35.5 µM [inhibitor, single point]",–
c1ccc(-c2onc(-c3ccco3)c2-c2ccc3[nH]ccc3c2)cc1,–,inactive: -10.6%
O=C(C1=C[C@H](c2ccc(C(F)(F)F)cc2)C[C@H](OCCCCO)O1)N1CCN(Cc2ccccc2)CC1,–,inactive: -9.59%
CC1=NN(C(=O)CSCc2ccccc2)C(O)(c2ccccc2)C1 (stereo not given),"inconclusive: 16.8 µM [inhibitor, partial curve, poor fit]",–
Cc1ccsc1/C=C/C1=Cc2c(sc(NC(=O)CSc3n[nH]c(N)n3)c2C#N)C(C)(C)C1,"inconclusive: 31.6 µM [inhibitor, partial curve, poor fit]",–
Cc1ccc(-n2ncc(C(=O)NCCc3ccccc3)c2C2CCN(C(=O)OC(C)(C)C)CC2)c(C)c1,"inconclusive: 39.8 µM [inhibitor, single point]",–
CCc1nc2ccc(C(=O)Nc3cccc(NS(C)(=O)=O)c3)cn2c1N(C)CCCc1ccccc1,"inconclusive: 35.5 µM [inhibitor, single point]",–
COc1cccc(NC(=O)C2CCN(S(=O)(=O)c3cccc4nonc34)CC2)c1,–,inactive: -19.3%
CC(C)n1cnc2c(N(C)c3ccccc3)nc(N(CCN(C)C)Cc3ccccc3)nc21,"inconclusive: 31.6 µM [inhibitor, partial curve, poor fit]",–
Oc1cccc(-c2nc(N3CCOCC3)c3oc4ncccc4c3n2)c1,"inconclusive: 14 µM [inhibitor, partial curve]",–
N#Cc1c(N2CCCC(O)C2)nc(N)c2c(N)nc3c(c12)CC(=O)N3C12CC3CC(CC(C3)C1)C2 (stereo not given),"inconclusive: 7.94 µM [inhibitor, partial curve, poor fit]",–
CCc1nc2c(OCc3ccc(C(F)(F)F)cc3)cccn2c1N(C)C(=O)CC(C)C,"inconclusive: 28.2 µM [inhibitor, single point]",–
O=C(NCCC1=CCCCC1)c1ccc2c(c1)N(Cc1ccccc1F)C(=O)c1ccccc1S2=O (stereo not given),–,inactive: 11.2%
